# According to the supplement of paper PMC8728848:
# Some of the results follow.
# Tests used:
# Assay in all cases: glycan array binding signal (z-score within array); higher = stronger binding
# Details in all cases: glycan notation: IUPAC condensed, linker removed
# [1] = target: Fuc(a1-3)[Gal(b1-4)]GlcNAc(b1-4)Gal(b1-4)[Fuc(a1-3)]GlcNAc(b1-4)Gal(b1-4)[Fuc(a1-3)]GlcNAc
# Method in brief: (§1)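 Glycan array data were curated from 3228 arrays in the Consortium for Functional Glycomics database and kept only where the protein sequence was available. Glycan names were converted to IUPAC-condensed notation, and columns mapping to the same glycan were averaged. The binding signal is a within-array Z-score, averaged across arrays of the same protein sequence at different concentrations or buffers and across linkers. Negative Z-scores can be read as non-binding.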
# [2] = target: Fuc(a1-3)[Gal(b1-4)]GlcNAc6S
# Method in brief: as §1
# [3] = target: Fuc(a1-3)[Gal3S(b1-4)]Glc
# Method in brief: as §1
# [4] = target: Fuc(a1-3)[Gal3S(b1-4)]Glc6S
# Method in brief: as §1
# [5] = target: Fuc(a1-3)[Gal3S(b1-4)]GlcNAc
# Method in brief: as §1
# [6] = target: Fuc(a1-3)[Gal3S(b1-4)]GlcNAc6S
# Method in brief: as §1
# [7] = target: Fuc(a1-3)[GalNAc(b1-4)]Gal(b1-4)GlcNAc
# Method in brief: as §1
# Fuc(a1-4)GlcNAc = target: Fuc(a1-4)GlcNAc
# Method in brief: as §1
# Fuc(b1-3)GlcNAc = target: Fuc(b1-3)GlcNAc
# Method in brief: as §1
# Gal(a1-2)Gal = target: Gal(a1-2)Gal
# Method in brief: as §1
# Gal(a1-3)Gal = target: Gal(a1-3)Gal
# Method in brief: as §1
# Gal(a1-3)Gal(b1-3)Glc = target: Gal(a1-3)Gal(b1-3)Glc
# Method in brief: as §1
# Gal(a1-3)Gal(b1-3)GlcNAc = target: Gal(a1-3)Gal(b1-3)GlcNAc
# Method in brief: as §1
# Gal(a1-3)Gal(b1-4)GlcNAc = target: Gal(a1-3)Gal(b1-4)GlcNAc
# Method in brief: as §1
# [8] = target: Gal(a1-3)Gal(b1-4)[Fuc(a1-3)]GalNAc
# Method in brief: as §1
# Gal(a1-3)GlcNAc = target: Gal(a1-3)GlcNAc
# Method in brief: as §1
# [9] = target: Gal(a1-3)[Gal(a1-4)]Gal(b1-4)GlcNAc
# Method in brief: as §1
# Gal(a1-4)Gal(b1-4)Gal = target: Gal(a1-4)Gal(b1-4)Gal
# Method in brief: as §1
# Gal(a1-4)Gal(b1-4)GalNAc = target: Gal(a1-4)Gal(b1-4)GalNAc
# Method in brief: as §1
# Gal(a1-4)GlcNAc = target: Gal(a1-4)GlcNAc
# Method in brief: as §1
# Gal(a1-6)Glc = target: Gal(a1-6)Glc
# Method in brief: as §1
# Gal(b1-2)Gal = target: Gal(b1-2)Gal
# Method in brief: as §1
# Gal(b1-3)Gal = target: Gal(b1-3)Gal
# Method in brief: as §1
# Gal(b1-3)GalNAc = target: Gal(b1-3)GalNAc
# Method in brief: as §1
# [10] = target: Gal(b1-3)GalNAc(b1-3)Gal(a1-4)Gal(b1-4)Glc
# Method in brief: as §1
# [11] = target: Gal(b1-3)GalNAc(b1-3)Gal(b1-4)Glc
# Method in brief: as §1
# [12] = target: Gal(b1-3)GalNAc(b1-3)Gal(b1-4)GlcNAc
# Method in brief: as §1
# [13] = target: Gal(b1-3)GalNAc(b1-4)Gal(b1-4)Glc
# Method in brief: as §1
# [14] = target: Gal(b1-3)GalNAc(b1-4)[Neu5Ac(a2-3)]Gal(b1-4)Glc
# Method in brief: as §1
# [15] = target: Gal(b1-3)GlcNAc(b1-3)Gal(b1-3)GlcNAc
# Method in brief: as §1
# [16] = target: Gal(b1-3)[Fuc(a1-4)]GlcNAc
# Method in brief: as §1
# [17] = target: Gal(b1-3)[Fuc(a1-4)]GlcNAc(b1-3)Gal(b1-3)[Fuc(a1-4)]GlcNAc
# Method in brief: as §1
# [18] = target: Gal(b1-3)[Fuc(a1-4)]GlcNAc(b1-3)Gal(b1-4)GlcNAc
# Method in brief: as §1
# [19] = target: Gal(b1-3)[Fuc(a1-4)]GlcNAc(b1-3)Gal(b1-4)[Fuc(a1-3)]GlcNAc
# Method in brief: as §1
# [20] = target: Gal(b1-3)[GlcNAc(b1-6)]GalNAc
# Method in brief: as §1
# [21] = target: Gal(b1-3)[GlcNAc(b1-6)]GlcNAc
# Method in brief: as §1
# [22] = target: Gal(b1-3)[Neu5Ac(a2-6)]GalNAc
# Method in brief: as §1
# [23] = target: Gal(b1-3)[Neu5Ac(a2-6)]GlcNAc
# Method in brief: as §1
binder,measurement,setting,value
"STA (Solanum tuberosum), Q9S8M0 (protein) NASPPSPSPLPYPQCGMKKGGGKCIKTGECCSIWGWCGTTNAYCSPGYCQKQCPGPYPEGRCGWQANGKSCPTGTGQCCSNGGWCGTTSDYCASKNCQSQCKLPSPPPPPPPPSPPPPSPPSPPPPSPPPPPPPSPPPPSPPPPSPSPPPPPASPPPPPPALPYPQCGIKKGGGKCIKTGECCSIWGWCGTTNAYCSPGYCQKQCPGPYPEGRCGWQANGKSCPTGTGHCCSNAGWCGTTSDYCAPVNCQAQCNTTTLTSPIKNRMRGIESFMLNVV",glycan array binding signal (z-score),[1],-0.59
same,glycan array binding signal (z-score),[2],1.88
same,glycan array binding signal (z-score),[3],-0.568
same,glycan array binding signal (z-score),[4],-0.54
same,glycan array binding signal (z-score),[5],-0.544
same,glycan array binding signal (z-score),[6],1.67
same,glycan array binding signal (z-score),[7],-0.59
same,glycan array binding signal (z-score),Fuc(a1-4)GlcNAc,-0.583
same,glycan array binding signal (z-score),Fuc(b1-3)GlcNAc,-0.593
same,glycan array binding signal (z-score),Gal(a1-2)Gal,-0.577
same,glycan array binding signal (z-score),Gal(a1-3)Gal,-0.569
same,glycan array binding signal (z-score),Gal(a1-3)Gal(b1-3)Glc,-0.582
same,glycan array binding signal (z-score),Gal(a1-3)Gal(b1-3)GlcNAc,-0.585
same,glycan array binding signal (z-score),Gal(a1-3)Gal(b1-4)GlcNAc,1.54
same,glycan array binding signal (z-score),[8],-0.597
same,glycan array binding signal (z-score),Gal(a1-3)GlcNAc,-0.586
same,glycan array binding signal (z-score),[9],1.61
same,glycan array binding signal (z-score),Gal(a1-4)Gal(b1-4)Gal,-0.59
same,glycan array binding signal (z-score),Gal(a1-4)Gal(b1-4)GalNAc,1.59
same,glycan array binding signal (z-score),Gal(a1-4)GlcNAc,1.2
same,glycan array binding signal (z-score),Gal(a1-6)Glc,-0.585
same,glycan array binding signal (z-score),Gal(b1-2)Gal,-0.575
same,glycan array binding signal (z-score),Gal(b1-3)Gal,-0.58
same,glycan array binding signal (z-score),Gal(b1-3)GalNAc,-0.586
same,glycan array binding signal (z-score),[10],-0.588
same,glycan array binding signal (z-score),[11],-0.586
same,glycan array binding signal (z-score),[12],2.07
same,glycan array binding signal (z-score),[13],-0.595
same,glycan array binding signal (z-score),[14],-0.576
same,glycan array binding signal (z-score),[15],-0.587
same,glycan array binding signal (z-score),[16],-0.59
same,glycan array binding signal (z-score),[17],-0.583
same,glycan array binding signal (z-score),[18],-0.584
same,glycan array binding signal (z-score),[19],-0.59
same,glycan array binding signal (z-score),[20],-0.587
same,glycan array binding signal (z-score),[21],-0.58
same,glycan array binding signal (z-score),[22],-0.584
same,glycan array binding signal (z-score),[23],-0.574
